Over roughly 33,000 sequences, “E-score (-0.5 to 0.5)” has its median near -0.017; the highest 2% begin near 0.3. Some of the results follow.
target: T1, Sut1 (UniProt P53032); assay: PBM E-score (8-mer binding enrichment) (E-score (-0.5 to 0.5)); higher = stronger / more preferred TF binding; most listed sequences are background and not binding sites; details: protein concentration: 200 nM; construct: GST-full length
T1 sequence: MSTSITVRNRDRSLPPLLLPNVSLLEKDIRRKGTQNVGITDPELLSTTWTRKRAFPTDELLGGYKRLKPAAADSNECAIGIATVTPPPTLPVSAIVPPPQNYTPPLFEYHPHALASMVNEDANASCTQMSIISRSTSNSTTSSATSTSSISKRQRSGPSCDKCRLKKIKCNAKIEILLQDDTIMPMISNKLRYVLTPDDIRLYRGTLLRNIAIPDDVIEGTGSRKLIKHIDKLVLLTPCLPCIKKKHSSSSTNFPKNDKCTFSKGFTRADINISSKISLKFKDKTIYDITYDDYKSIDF
Procedure, shortened: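 Yeast transcription factors, full-length or as DNA-binding domains, were expressed with a GST tag using PURExpress in vitro transcription/translation. At about 100-200 nM they were applied to universal all-10-mer Agilent arrays, double-stranded by primer extension on fresh or once-stripped slides. Fluorescent anti-GST detected bound protein, and masliner normalised the scans. E-scores for ungapped eight-base words, pooled with reverse complements, came from the Universal PBM Analysis Suite.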

Sequence | PBM E-score
AAAATCAT | 0.194
ATGTCCTG | -0.0409
ACCTAGCT | -0.00549
AATGGAGT | 0.0746
ACCAAACC | 0.0288
GTCGCGAA | -0.0205
ACCGACAT | 0.00731
CGAACAGA | 0.0271
AAGATCAC | 0.0488
CCAGGCTC | -0.181
GCCAGGTA | -0.192
TATCCGAA | 0.304
CCGGGTTC | -0.0363
GAGAGCCA | -0.115
AACTATAC | 0.177
AACGTTAC | 0.0371
GAAGATCA | 0.0779
GCGATGCA | -0.235
CCTGGGAG | -0.179
GGGTGACC | -0.248
CGAGGATC | -0.0554
AAGGGCTA | 0.0451
GACATTCC | -0.0436
CACTCATG | -0.107
ACGCACAG | -0.207

Sequence | PBM E-score
CTTGCACC | -0.0271
CCGCCCAC | -0.0748
AGGCGCTA | -0.0939
CAAAACAA | 0.00775
AGTTCATC | 0.123
GGCGGGTA | -0.196
AAGGATGT | -0.112
AGGCTAAA | 0.0304
CACCGTTA | 0.0406
GGCGACAC | -0.0926
CGTCTCGA | -0.113
AAGGATCC | -0.036
AATGATTA | 0.235
AAATATTG | 0.25
CCGGCAAG | 0.0478
GTCTATGA | 0.00254
GCGTCTTA | -0.0538
GGCTGAAC | -0.148
ATGAAATG | 0.00832
CCGACACC | -0.0623
AGGAAGTG | -0.0113
GTACGTGA | -0.0123
ATCAACAA | 0.148
ACGATGCC | -0.355
ATAAGTTG | 0.0781

Sequence | PBM E-score
CTAAAGCC | -0.108
ACGACGTA | -0.0283
CCGGTAAC | 0.141
GCGCAACA | -0.134
AACTACCT | 0.098
ATACGGTG | 0.0347
CGTGTTAG | -0.013
GAAAGGTC | 0.00465
GCATGTTA | 0.133
ACTTGACG | 0.0562
AAGGCCTA | -0.0434
CTTTGCGA | 0.029
ACCCTCTG | -0.219
GGTTGATA | 0.0788
GAGAGGCC | -0.18
AATTGTGT | 0.0546
CTAGTTTA | 0.0403
CATTTACA | 0.0499
CGCGCTTA | 0.116
AAAGTGGA | -0.0242
ACTCATAT | 0.106
AGGACGAG | -0.146
CCGTCCCC | -0.215
ATCTCTAG | 0.0132
ATACTTTA | 0.275

Sequence | PBM E-score
CTGCATAC | -0.0103
TAGACAAA | 0.0918
AATGTTCG | 0.00278
CCAGGCCA | -0.323
AACTCAAT | 0.208
GCGAATAC | 0.0643
AACAATGG | 0.00374
CGGTACCC | -0.123
CCCAGCAG | -0.0564
CCGCATGC | -0.117
AACTGGCA | -0.0343
CAAGTTAA | 0.0317
TTCCCCAA | -0.114
ACTATACT | 0.136
TATTTTGA | 0.131
GCCATTTA | -0.0723
CAGCATCA | -0.0489
GCATGCCA | -0.207
ATGGGAAT | -0.0435
TCGTCCAA | 0.0754
CAAAGGCA | -0.05
AAATAGCT | 0.0603
GTGCGCTA | -0.0687
CCCATTTC | -0.00805
CACGCTTC | -0.213

Sequence | PBM E-score
CTGTTCAA | 0.121
CTATCATA | 0.138
AAACGACT | 0.107
AGGACTTG | -0.05
GCGAAGGA | -0.103
GTATAGGA | -0.0517
AAGTTCCC | -0.204
GCCCCAGC | -0.152
CACCTTCC | -0.0147
TGCTGCCA | -0.188
CCCATCAA | 0.0281
ATTCCACA | 0.18
AAAGTCTA | 0.064
ACTGACGC | -0.274
GAGAACAA | 0.192
TGAATCAA | 0.244
ATCATCTC | 0.179
ACGTAGAA | 0.0859
AAACACCA | 0.0903
GTTCAACA | 0.0826
ATTGGGCA | 0.0137
AGTTTCCG | 0.207
CAGTCTAG | -0.164
ACGGCCCA | -0.114
ATCGCTGG | -0.146

Sequence | PBM E-score
CTAGGTCA | 0.0351
CGCCCGGA | 0.361
GGTTCCAC | 0.0587
ACGTCGCT | -0.0756
TAAGGTCA | -0.0581
AATCGGCG | -0.0941
CCATAAGG | -0.266
CACTGCAA | -0.0662
ACCCCTAA | -0.204
ACAAACGT | -0.12
ACAAAGGT | 0.101
ACACACAA | 0.00492
CGAGGACC | -0.136
AGCTGAGG | -0.145
CCGGTTCG | 0.0282
CGAGCGCC | -0.182
GATGCAGA | -0.178
CCTGAACG | -0.182
CTAACGAG | -0.0946
CCAACCGA | 0.0523
AGGCCCCA | -0.369
CACTAGAC | -0.0456
AGCTCACA | -0.128
ACTGCTAA | -0.00152
ATAGTGCA | 0.0964

Sequence | PBM E-score
GGATCCTA | -0.103
ATTTCCAA | 0.129
CCATCCAG | -0.248
CTCGCGGA | 0.195
AAATAGCA | 0.214
GACATTGA | 0.119
AGCTTTAT | 0.0137
AGCCATGC | -0.011
AACTTAGA | 0.176
AGATGGGG | -0.266
ACGAGCGT | -0.265
CGTCTGGA | -0.229
GCACGAAC | 0.0158
AGAGCACG | 0.125
GGAATCAC | 0.078
CCATCTAA | -0.061
GATAAGGA | -0.0824
GGAAATGA | 0.116
AACAACTG | 0.138
AACACTAA | 0.211
CGCTAGCA | -0.0161
AATCACGT | -0.0474

Reference: the supplement of paper PMC3334620
